1 molecule from patent publication US20060148705A1 (Regeneron, published 2006) can be followed below.

Test [1] addresses T1, human VEGF165 (human, UniProt P15692-4 27-191).
T1 construct: also called hVEGF165
T1 sequence (looked up): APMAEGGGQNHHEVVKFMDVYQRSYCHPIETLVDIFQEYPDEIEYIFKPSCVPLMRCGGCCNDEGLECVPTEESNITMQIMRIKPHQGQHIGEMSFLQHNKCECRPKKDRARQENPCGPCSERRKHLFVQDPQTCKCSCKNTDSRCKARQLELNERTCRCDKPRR
Put plainly: BIAcore (SPR), as described in WO/0075319.

The target of test [2] is T1, human VEGF165. Put plainly: affinity determination for human VEGF-165 binding to trap dimer.
In test [3] the target is T1, human VEGF165. In words: half-life of dissociation from hVEGF165, as described in WO/0075319.

B1: VEGFR1R2.FcΔC1(a) parent VEGF trap (dimer of SEQ ID NO:10) (Fc fusion)
chain: SDTGRPFVEMYSEIPEIIHMTEGRELVIPCRVTSPNITVTLKKFPLDTLIPDGKRIIWDSRKGFIISNATYKEIGLLTCEATVNGHLYKTNYLTHRQTNTIIDVVLSPSHGIELSVGEKLVLNCTARTELNVGIDFNWEYPSSKHQHKKLVNRDLKTQSGSEMKKFLSTLTIDGVTRSDQGLYTCAASSGLMTKKNSTFVRVHEK[here human IgG1 Fc without letters]
notes: also called full length VEGF trap; full-sized parent trap
For B1, the “T1/2” value in the test with human VEGF165 [1] stood at 4.53 h. In the test with human VEGF165 [2], this molecule showed a Kd of 0.655 pM, a koff of 1.79e-05 s⁻¹ and a kon of 2.73e+07 M⁻¹ s⁻¹. Also, the “T1/2” value with human VEGF165 [3] is 3.5 h.
